{"source": "PubChem BioAssay AID434955", "about": "(Southern Research Specialized Biocontainment Screening …, 2010)", "note": "Where “and” joins values, the source holds several entries; their conditions need not be identical. Equal values may be shown once. Some of the results follow. Further columns of the screen follow, without active or inactive calls. Compounds called inactive in the main read-out are mostly missing here."}
{"assay": "beta-lactam sensitization of Mtb H37Rv, H37Rv (AID 434955);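 also: growth measured after seven days incubation then overnight dye step; 0% = bacteria only wells and 100% = bacteria with antibiotic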", "details": "M. tuberculosis H37Rv growth with meropenem, percent inhibition; measured here: primary screen without meropenem; at 25 µM"}
{"smiles": "CC(C)(C)c1ccc(C(=O)NCc2nnc(SCC(=O)NC3CCCC3)o2)cc1", "inhibition": "2.49%"}
{"smiles": "O=C(CCCCCn1c(=S)[nH]c2ccc(N3CCOCC3)cc2c1=O)NCCc1ccccc1", "inhibition": "7.67%"}
{"smiles": "CC1CCCN(S(=O)(=O)c2ccc(C(=O)Nc3nnc(C4=COCCO4)o3)cc2)C1", "note": "(stereo not given)", "inhibition": "66.3%"}
{"smiles": "CCCCNC(=S)N/N=C/C1=CCC2CC1C2(C)C", "note": "(stereo not given)", "inhibition": "2.51%"}
{"smiles": "O=C(CN1C(=O)c2cccnc2Oc2ccc(Cl)cc21)NC1CCCC1", "inhibition": "-2.27%"}
{"smiles": "Cc1cc(=O)[nH]c(N/N=C/c2c(F)c(F)c(F)c(F)c2F)n1", "inhibition": "32.9%"}
{"smiles": "CCNc1nc(NCC)nc(N(C)N)n1", "inhibition": "-0.8%"}
{"smiles": "CSCCC(NS(=O)(=O)c1cccs1)C(=O)NCc1ccc(C)cc1", "note": "(stereo not given)", "inhibition": "7.49%"}
{"smiles": "O=C(CSc1nnc(CNC(=O)c2ccc(F)cc2)o1)Nc1ccc2c(c1)OCCO2", "inhibition": "-4.28%"}
{"smiles": "O=C(NC(=S)Nc1cccc(Cl)c1N1CCCC1)c1ccc(-c2cccc([N+](=O)[O-])c2)o1", "inhibition": "4.55%"}
{"smiles": "CCOC(=O)C1CCN(C(=O)CN2C(=O)c3cccnc3Oc3ccc(C)cc32)CC1", "inhibition": "4.09%"}
{"smiles": "COC(=O)Cn1c(=O)c2c(nc(Br)n2CC(=O)OC)n(C)c1=O", "inhibition": "-11.7%"}
{"smiles": "COCc1cc(=O)n2[nH]cc(-c3ccccc3)c2n1", "inhibition": "29.8%"}
{"smiles": "COc1ccc(C2=NOC(C(=O)NCc3ccco3)C2)cc1", "note": "(stereo not given)", "inhibition": "-1.85%"}
{"smiles": "CCn1c(SCC(=O)N2CCc3ccccc3C2)nc2c1c(=O)n(C)c(=O)n2C", "inhibition": "7.11%"}
{"smiles": "Clc1ccccc1Nc1nc(-c2ccncc2)nc2ccccc12", "inhibition": "67.1%"}
{"smiles": "COc1ccc(C(=O)CSc2nnc(CNC(=O)c3ccccc3)o2)cc1", "inhibition": "7.71%"}
{"smiles": "CCc1cccc(NC(=O)CN(c2ccc(OC)cc2)S(=O)(=O)c2c(C)n[nH]c2C)c1", "inhibition": "-14%"}
{"smiles": "CCc1nn(C(CC)C(=O)NCCCN2CC(C)CC(C)C2)c(=O)c2cc3oc(C)cc3n12", "note": "(stereo not given)", "inhibition": "2.56%"}
{"smiles": "CCOC(=O)c1c(C)[nH]c(N=Nc2ccccc2Cl)c1C", "inhibition": "45.4%"}
{"smiles": "CC1CCCCC1NS(=O)(=O)c1ccc(S(=O)(=O)NCc2ccncc2)cc1", "note": "(stereo not given)", "inhibition": "-2.56%"}
{"smiles": "COc1cc(NC(=O)c2ccccc2Cl)ccc1NC(=O)c1ccco1", "inhibition": "24.5%"}
{"smiles": "COC(=O)[C@H]1Cc2c([nH]c3ccccc23)[C@H](c2ccccc2)N1", "inhibition": "30.5%"}
{"smiles": "CCOc1ccc(CCNC(=O)COC(=O)c2ccc(C)c([N+](=O)[O-])c2)cc1OCC", "inhibition": "-2.24%"}
{"smiles": "CC(C)N1CCC(n2nccc2NC(=O)c2ccc3c(c2)OCO3)CC1", "inhibition": "-12.2%"}
{"smiles": "CCCC(=O)N(Cc1cc(=O)[nH]c2ccccc12)c1cccc(C)c1", "inhibition": "-2.64%"}
{"smiles": "CCOc1ccccc1NC(=O)CC1NCCNC1=O", "note": "(stereo not given)", "inhibition": "-2.67%"}
{"smiles": "Cc1c(Cl)ccc2c(C(=O)Nc3cc(C(C)(C)C)on3)cc(-c3ccccn3)nc12", "inhibition": "8.96%"}
{"smiles": "CCCC(NC(=O)c1ccco1)c1nc2ccccc2[nH]1", "note": "(stereo not given)", "inhibition": "7.5%"}
{"smiles": "CCOC(=O)c1oc2ccccc2c1NC(=O)c1ccco1", "inhibition": "10.3%"}
{"smiles": "CCC(=O)N1CCN(c2ccc(NC(=S)NC(=O)c3ccc(OC)c([N+](=O)[O-])c3)cc2)CC1", "inhibition": "31.7%"}
{"smiles": "COc1cccc(C(=O)N(CN2CCCC2=O)c2cccc(Cl)c2)c1OC", "inhibition": "5.41%"}
{"smiles": "CCOC(=O)C1CCN(C(=O)CNS(=O)(=O)c2cccs2)CC1", "inhibition": "1.37%"}
{"smiles": "O=C(O)CCCN1C(=O)/C(=C\\c2ccc(-c3nc4ccccc4s3)o2)SC1=S", "inhibition": "7.32%"}
{"smiles": "COc1ccccc1NC(=O)/C(C#N)=C/c1ccc(OCCN2CCOCC2)c(OC)c1", "inhibition": "1.02%"}
{"smiles": "Cc1ccc(C(=O)N2CCNC(=O)C2CC(=O)Nc2ccc(F)cc2)cc1C", "note": "(stereo not given)", "inhibition": "-1.03%"}
{"smiles": "CC1=C(C(=O)O)N2C(=O)C(NC(=O)c3ccccc3Cl)C2SC1", "note": "(stereo not given)", "inhibition": "-7.44%"}
{"smiles": "CCCCNC(=O)CCCCCNS(=O)(=O)c1ccc(OC)cc1", "inhibition": "3.12%"}
{"smiles": "CC(=O)c1ccc(-n2c(C)ccc2-c2ccccc2)cc1", "inhibition": "18.7%"}
{"smiles": "Cc1ccccc1C1CC(c2ccc(F)cc2)Nc2nc(N)nn21", "note": "(stereo not given)", "inhibition": "-4%"}
{"smiles": "COc1ccc(N=C2S/C(=C\\c3ccc(N4CCOCC4)o3)C(=O)N2CCc2c[nH]c3ccccc23)cc1", "inhibition": "47.2%"}
{"smiles": "Oc1cccc(/C=N/n2c(C3CCCCC3)n[nH]c2=S)c1", "inhibition": "-1.37%"}
{"smiles": "Cc1nc(SCC(=O)c2cc3ccccc3oc2=O)c(C#N)c(-c2ccccc2)c1C(=O)Nc1ccccc1", "inhibition": "17.1%"}
{"smiles": "COC(=O)[C@H](C)NC(=O)NCc1ccco1", "inhibition": "5.32%"}
{"smiles": "CCCCNC(=O)c1onc(CSc2ccccc2C)c1C(=O)O", "inhibition": "17.6%"}
{"smiles": "COc1cc(C(=S)N2CCCC2)cc(Cl)c1OCC(=O)Nc1ccc(C)cc1C", "inhibition": "-2.24%"}
{"smiles": "CCC(C)(C(=O)NC1CCCCC1)N(Cc1cccs1)C(=O)Cc1cccs1", "note": "(stereo not given)", "inhibition": "-2.2%"}
{"smiles": "Cc1cnc(C(=O)OCC(=O)Nc2oc(-c3ccccc3)c(-c3ccccc3)c2C#N)cn1", "inhibition": "1.05%"}
{"smiles": "COc1ccc(C)cc1S(=O)(=O)N1CCN(S(=O)(=O)c2cc(C)ccc2OC)CC1", "inhibition": "-1.65%"}
{"smiles": "C=CCN(CC=C)C(=S)Nc1ccccc1", "inhibition": "0.43%"}
{"smiles": "Cc1ccc(C(=O)Nc2nc3ccccc3s2)s1", "inhibition": "22.4%"}
{"smiles": "Cc1ccc(C(=O)COC(=O)CCN2C(=O)C3C4CCC(C4)C3C2=O)cc1C", "note": "(stereo not given)", "inhibition": "15.8%"}
{"smiles": "CCOc1ccc(/C=N/NC(=O)c2ccccc2O)cc1CN1CC2CC(C1)c1cccc(=O)n1C2", "note": "(stereo not given)", "inhibition": "70.5%"}
{"smiles": "CC(C)CC(=O)N1CCN(c2ccc([N+](=O)[O-])c(NCc3ccccc3)c2)CC1", "inhibition": "19.6%"}
{"smiles": "Cc1cccc(NC(=O)c2ccc(N3C(=O)C4C5C=CC(C6CC56)C4C3=O)cc2)c1", "note": "(stereo not given)", "inhibition": "4.24%"}
{"smiles": "CCN(Cc1ccccc1)C(=O)COc1cc(=O)n(CC)c2ccccc12", "inhibition": "-6.03%"}
{"smiles": "COc1cc2c(cc1OC)C(C(=O)N1CCOCC1)C(c1cccs1)N(C)C2=O", "note": "(stereo not given)", "inhibition": "-9.46%"}
{"smiles": "Cc1cc(C(=O)N2CCN(C(c3ccccc3)c3ccccc3)CC2)no1", "inhibition": "-3.43%"}
{"smiles": "CO/N=C(\\C(=O)N[C@@H]1C(=O)N2C(C(=O)O)=C(COC(C)=O)CS[C@H]12)c1csc(N)n1", "note": "(stereo in doubt)", "inhibition": "-8.39% and -10.7% and -2.57%"}
{"smiles": "Cc1ccc(-n2c(SCC(=O)OC(C)C)nnc2-c2ccco2)cc1", "inhibition": "42.9%"}
{"smiles": "CCC1Nc2ncnc(N3CCN(c4ccccc4)CC3)c2N(Cc2ccc(Br)cc2)C1=O", "note": "(stereo not given)", "inhibition": "12.5%"}
{"smiles": "COc1ccc(Cl)cc1NC(=O)NNC(=O)c1ccccn1", "inhibition": "11.5%"}
{"smiles": "O=C(NCc1ccccc1)C1CCN(C(=O)Cc2ccccc2)CC1", "inhibition": "3.29%"}
{"smiles": "COc1ccc(Cl)cc1NC(=O)C/C(C)=N/NC(=O)CC#N", "inhibition": "27.3%"}
{"smiles": "CCOC(=O)c1cc(-c2ccc(C)cc2)n(CCC(=O)N2CCN(c3ccccn3)CC2)c1C", "inhibition": "46.6%"}
